For 32 sequences, binding signal (RPM ratio (pull-down/input)) results are on record in article PMC12820563.

This is one part of the list. The list includes weakly bound sequences.

In the test the target is T1, MBP-FoxP3dN (UniProt Q99JB6).
T1 sequence: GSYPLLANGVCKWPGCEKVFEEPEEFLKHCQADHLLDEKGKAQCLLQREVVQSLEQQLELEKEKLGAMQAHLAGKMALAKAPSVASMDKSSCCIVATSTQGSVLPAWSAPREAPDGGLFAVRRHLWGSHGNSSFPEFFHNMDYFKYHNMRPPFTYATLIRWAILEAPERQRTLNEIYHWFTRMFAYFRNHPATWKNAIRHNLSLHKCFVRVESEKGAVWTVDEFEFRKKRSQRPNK
Briefly: PD-seq (MBP pull-down with sequencing). Conditions: 20 mM Tris-HCl pH 7.5, 100 mM NaCl, 1.5 mM MgCl2, 0.4 uM protein, 0.1 uM dsDNA library, 30 min, room temperature, amylose pull-down; high values mean tight binding; double strand, one strand shown.
On to “GATGATTGTTCTCCCAGCTGATGAATTGCAGTCGTCGAGTAAACAAATTTTCCTAATCTTTCTGTTCAAGCGCCATCTAC”, for which the binding signal (RPM ratio (pull-down/input)) amounted to 0.901.
As for “GATGATTGTTCTCCCAGCTGATGAATTACTTGTATCGAGTAAACAAATTTTCCTAATCTTTCTGTTCAAGCGCCATCTAC”, the figure is 0.816; as for “GATGATTGTTCTCCCAGCTGATGAATTGGCGGCCTCGAGTAAACAAATTTTCCTAATCTTTCTGTTCAAGCGCCATCTAC”, 0.449; as for “GATGATTGTTCTCCCAGCTGATGAATTTTTAGCGTCGAGTAAACAAATTTTCCTAATCTTTCTGTTCAAGCGCCATCTAC”, 0.448.
Regarding “GATGATTGTTCTCCCAGCTGATGAATTTTTTTAGTCGAGTAAACAAATTTTCCTAATCTTTCTGTTCAAGCGCCATCTAC”, the binding signal (RPM ratio (pull-down/input)) was determined as 0.273.
Consider “GATGATTGTTCTCCCAGCTGATGAATTGGATAAGTCGAGTAAACAAATTTTCCTAATCTTTCTGTTCAAGCGCCATCTAC”, for which the binding signal (RPM ratio (pull-down/input)) was 0.218.
Regarding “GATGATTGTTCTCCCAGCTGATGAATTCGGTGAGTCGAGTAAACAAATTTTCCTAATCTTTCTGTTCAAGCGCCATCTAC”, the binding signal (RPM ratio (pull-down/input)) worked out at 0.558.
Take “GATGATTGTTCTCCCAGCTGATGAATTCAGTTTATCGAGTAAACAAATTTTCCTAATCTTTCTGTTCAAGCGCCATCTAC”: the binding signal (RPM ratio (pull-down/input)) was found to be 3.68.
As for “GATGATTGTTCTCCCAGCTGATGAATTAACGCATTCGAGTAAACAAATTTTCCTAATCTTTCTGTTCAAGCGCCATCTAC”, the figure is 6.02.
As for “GATGATTGTTCTCCCAGCTGATGAATTCCTAGTATCGAGTAAACAAATTTTCCTAATCTTTCTGTTCAAGCGCCATCTAC”, the figure is 0.391; as for “GATGATTGTTCTCCCAGCTGATGAATTTGTACTGTCGAGTAAACAAATTTTCCTAATCTTTCTGTTCAAGCGCCATCTAC”, 3.11.
As for “GATGATTGTTCTCCCAGCTGATGAATTGACTTCCTCGAGTAAACAAATTTTCCTAATCTTTCTGTTCAAGCGCCATCTAC”, the binding signal (RPM ratio (pull-down/input)) is 0.331.
As for “GATGATTGTTCTCCCAGCTGATGAATTTGCACTATCGAGTAAACAAATTTTCCTAATCTTTCTGTTCAAGCGCCATCTAC”, the figure is 0.894.
As for “GATGATTGTTCTCCCAGCTGATGAATTCTTTACGTCGAGTAAACAAATTTTCCTAATCTTTCTGTTCAAGCGCCATCTAC”, the figure is 0.372.
Consider “GATGATTGTTCTCCCAGCTGATGAATTAACCAACTCGAGTAAACAAATTTTCCTAATCTTTCTGTTCAAGCGCCATCTAC”, for which the binding signal (RPM ratio (pull-down/input)) turned out to be 0.312.
With “GATGATTGTTCTCCCAGCTGATGAATTCGTAGATTCGAGTAAACAAATTTTCCTAATCTTTCTGTTCAAGCGCCATCTAC”, the binding signal (RPM ratio (pull-down/input)) came out at 0.424.
Consider “GATGATTGTTCTCCCAGCTGATGAATTCTAGAGTTCGAGTAAACAAATTTTCCTAATCTTTCTGTTCAAGCGCCATCTAC”, for which the binding signal (RPM ratio (pull-down/input)) was 0.389.
“GATGATTGTTCTCCCAGCTGATGAATTTACGCCCTCGAGTAAACAAATTTTCCTAATCTTTCTGTTCAAGCGCCATCTAC”: the binding signal (RPM ratio (pull-down/input)) is 0.837.
As for “GATGATTGTTCTCCCAGCTGATGAATTCCGGTTATCGAGTAAACAAATTTTCCTAATCTTTCTGTTCAAGCGCCATCTAC”, the figure is 0.841; as for “GATGATTGTTCTCCCAGCTGATGAATTATGTGTATCGAGTAAACAAATTTTCCTAATCTTTCTGTTCAAGCGCCATCTAC”, 5.73; as for “GATGATTGTTCTCCCAGCTGATGAATTACTGCTGTCGAGTAAACAAATTTTCCTAATCTTTCTGTTCAAGCGCCATCTAC”, 0.446.
As for “GATGATTGTTCTCCCAGCTGATGAATTTTTCCGTTCGAGTAAACAAATTTTCCTAATCTTTCTGTTCAAGCGCCATCTAC”, the figure is 0.238.
As for “GATGATTGTTCTCCCAGCTGATGAATTTTCCTAGTCGAGTAAACAAATTTTCCTAATCTTTCTGTTCAAGCGCCATCTAC”, the figure is 0.184; as for “GATGATTGTTCTCCCAGCTGATGAATTTAGTCCGTCGAGTAAACAAATTTTCCTAATCTTTCTGTTCAAGCGCCATCTAC”, 0.396.
In the case of “GATGATTGTTCTCCCAGCTGATGAATTCGACTCATCGAGTAAACAAATTTTCCTAATCTTTCTGTTCAAGCGCCATCTAC”, the binding signal (RPM ratio (pull-down/input)) is 0.569.
As for “GATGATTGTTCTCCCAGCTGATGAATTCCACGGGTCGAGTAAACAAATTTTCCTAATCTTTCTGTTCAAGCGCCATCTAC”, the figure is 0.2; as for “GATGATTGTTCTCCCAGCTGATGAATTTAAAGAGTCGAGTAAACAAATTTTCCTAATCTTTCTGTTCAAGCGCCATCTAC”, 0.238; as for “GATGATTGTTCTCCCAGCTGATGAATTAAACGCTTCGAGTAAACAAATTTTCCTAATCTTTCTGTTCAAGCGCCATCTAC”, 0.461.
As for “GATGATTGTTCTCCCAGCTGATGAATTCGGTTTATCGAGTAAACAAATTTTCCTAATCTTTCTGTTCAAGCGCCATCTAC”, the binding signal (RPM ratio (pull-down/input)) was 2.84.
As for “GATGATTGTTCTCCCAGCTGATGAATTAAGCATTTCGAGTAAACAAATTTTCCTAATCTTTCTGTTCAAGCGCCATCTAC”, the figure is 6.1.
As for “GATGATTGTTCTCCCAGCTGATGAATTCATGGCCTCGAGTAAACAAATTTTCCTAATCTTTCTGTTCAAGCGCCATCTAC”, the figure is 0.567; as for “GATGATTGTTCTCCCAGCTGATGAATTGCAGTTATCGAGTAAACAAATTTTCCTAATCTTTCTGTTCAAGCGCCATCTAC”, 1.39.
